Data taken from PMC4336329 (PLoS ONE, 2015).
In all, about 310,000 compounds went through this assay and about 2,200 (0.71%) showed an effect of 50% or more. The effect is printed as a negative number. This is one part of the list.

biological target: human ether-à-go-go-related gene (hERG) potassium channel (human, UniProt Q12809); experiment: primary screen, population patch clamp on CHO cells stably expressing hERG
Sequence (Q12809 whole entry, looked up): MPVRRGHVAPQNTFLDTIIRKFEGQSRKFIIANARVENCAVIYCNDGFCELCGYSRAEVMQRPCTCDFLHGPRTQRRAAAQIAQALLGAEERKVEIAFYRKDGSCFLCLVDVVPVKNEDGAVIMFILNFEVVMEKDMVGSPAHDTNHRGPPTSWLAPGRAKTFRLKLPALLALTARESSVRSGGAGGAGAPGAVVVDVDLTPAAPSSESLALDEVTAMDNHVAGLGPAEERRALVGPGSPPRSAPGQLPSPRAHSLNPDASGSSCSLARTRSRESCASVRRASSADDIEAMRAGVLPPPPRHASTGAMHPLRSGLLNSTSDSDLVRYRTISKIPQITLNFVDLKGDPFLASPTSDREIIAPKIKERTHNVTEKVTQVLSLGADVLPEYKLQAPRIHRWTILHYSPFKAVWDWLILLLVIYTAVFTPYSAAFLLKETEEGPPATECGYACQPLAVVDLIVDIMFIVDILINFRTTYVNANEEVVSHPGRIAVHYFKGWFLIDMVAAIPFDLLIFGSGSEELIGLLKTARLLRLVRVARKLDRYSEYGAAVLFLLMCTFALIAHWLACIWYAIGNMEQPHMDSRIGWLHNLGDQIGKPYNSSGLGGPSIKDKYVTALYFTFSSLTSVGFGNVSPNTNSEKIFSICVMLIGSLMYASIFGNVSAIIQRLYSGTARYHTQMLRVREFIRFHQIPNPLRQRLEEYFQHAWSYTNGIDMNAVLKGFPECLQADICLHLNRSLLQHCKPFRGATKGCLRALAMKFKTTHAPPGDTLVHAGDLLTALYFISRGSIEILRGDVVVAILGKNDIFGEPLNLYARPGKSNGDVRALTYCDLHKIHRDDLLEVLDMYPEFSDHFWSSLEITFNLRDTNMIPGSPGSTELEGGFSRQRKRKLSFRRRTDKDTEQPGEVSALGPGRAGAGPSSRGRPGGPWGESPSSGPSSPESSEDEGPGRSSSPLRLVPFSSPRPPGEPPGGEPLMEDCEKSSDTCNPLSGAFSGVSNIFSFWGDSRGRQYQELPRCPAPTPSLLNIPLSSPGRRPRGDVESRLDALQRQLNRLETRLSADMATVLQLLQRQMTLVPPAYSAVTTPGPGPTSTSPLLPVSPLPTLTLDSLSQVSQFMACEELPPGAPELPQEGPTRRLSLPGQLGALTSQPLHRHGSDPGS

| Structure (SMILES) | hERG current change (%, negative = inhibition) at 1uM [%] |
| --- | --- |
| Br.N=c1n(CCN2CCOCC2)c2ccccc2n1Cc1ccccc1Br | -51.7 |
| Cc1nc(/C=C/c2ccccc2)cc(/C=C/c2ccccc2)n1 | 3.19 |
| COc1ccccc1C(=O)OCn1nnc2ccccc2c1=O | 5.54 |
| COc1ccc(-c2[nH]ncc2CN(C)CCc2c(C)n[nH]c2C)c(F)c1 | 18.8 |
| COc1cccc(-c2sc3ccc(OC)cc3c2C#CC2(O)CCCCC2)c1 | 14.4 |
| O=C(Cc1cccc(Cl)c1)Nc1ccc(Br)cc1 | 8.65 |
| O=C(CN1C(=O)c2ccccc2C1=O)Nc1ccc(Cl)cn1 | 24.3 |
| COc1ccc(C(C)=O)cc1COC(=O)CCC(=O)N(CC(C)C)c1c(N)n(CC(C)C)c(=O)[nH]c1=O | 10.6 |
| C/C(=N\NS(=O)(=O)c1ccc(Br)cc1)c1ccc(-n2ccnc2)cc1 | 11.6 |
| O=C(Nc1c(C(=O)NCc2ccco2)cnn1-c1ccccc1)c1cccc(F)c1 | -1.17 |
| COc1ccc(OC)c(CN2CCCC(CO)C2)c1 (stereo not shown) | 13.5 |
| Cc1ccc(NC(=O)C2CCN(S(=O)(=O)c3c(C)n[nH]c3C)CC2)c(C)c1 | 15.5 |
| CC1CCN(S(=O)(=O)c2ccc(NC(=O)CN3CCCC(C)C3)cc2)CC1 (stereo not shown) | 0.658 |
| CC(Oc1ccccc1F)C(=O)NNC(=O)c1cc2ccccc2o1 (stereo not shown) | 3.93 |
| Cn1c(=O)c2c(nc(Sc3ncnn3CC(=O)NC3CCCCC3)n2C)n(C)c1=O | 9.2 |
| Cc1cc(=O)oc2cc(OCC(=O)N3CCCC3)c(Cl)cc12 | 1.63 |
| COc1ccc(CNC(=O)C(C)NS(=O)(=O)c2ccc(C)cc2)cc1 (stereo not shown) | 3.39 |
| CCOC(=O)Nc1ccccc1N1C(=O)c2ccccc2C1=O | 11.1 |
| Cl.O=C(OC1CCN(CCCl)CC1)C(c1ccccc1)c1ccccc1 | 15.9 |
| CCOc1cc(S(=O)(=O)n2ccnc2)ccc1Cl | 13.4 |
| CCOC(=O)N1CCN(c2ncnc3c2[nH]c2ccc(F)cc23)CC1 | 15.7 |
| CC(=O)N1CCN(S(=O)(=O)c2cccc(C(=O)NCCc3ccc(Cl)cc3)c2)CC1 | 7.17 |
| COc1ccccc1N1CCN(C(=O)c2cccc3c(=O)c(C)c(-c4ccccc4)oc23)CC1 | 2.64 |

| Structure (SMILES) | hERG current change (%, negative = inhibition) at 1uM [%] |
| --- | --- |
| Cc1cccc(NC(=O)CSc2ccc(-c3cccnc3)nn2)c1 | 8.67 |
| CC(=O)NC1=NN(C(C)=O)C2(CCCCC2)S1 | 5.14 |
| COc1cc(NC(=S)N2CCC(C(N)=O)CC2)c(OC)cc1Cl | 14.5 |
| C=CCn1c(SCC(=C)C)nc2c1c(=O)[nH]c(=O)n2C | -10.3 |
| COc1cc(/C=C/C(=O)N2CCN(CC(O)COc3ccccc3)CC2)cc(OC)c1OC.Cl (stereo not shown) | 1.32 |
| Cc1cccc(Nc2nnc(SCC(=O)Nc3ccccc3[N+](=O)[O-])s2)c1C | 10.6 |
| ClCC1CSC(=NC23CC4CC(CC(C4)C2)C3)O1 (stereo not shown) | 11.5 |
| O=C(CN1C(=O)COc2ccc(Cl)cc21)Nc1nccs1 | 1.62 |
| NS(=O)(=O)c1ccc(NC(=O)CN2CCc3ccccc3C2)cc1 | 9.33 |
| O=C(c1ccc(Cl)c(S(=O)(=O)N2CCCCC2)c1)N1CCN(Cc2ccccc2)CC1 | -7.55 |
| O=C(CCNC(=O)c1ccccc1Cl)NCCc1ccc(C(F)(F)F)cc1 | 13 |
| OCCCc1nc2n(n1)C(c1cccs1)C=C(c1ccccc1)N2 (stereo not shown) | 7.28 |
| CC1CCCCN1c1ncnc2ccccc12.Cl (stereo not shown) | 3.54 |
| O=C(NCc1ccccc1F)c1ccc(S(=O)(=O)Nc2cccc(C(F)(F)F)c2)cc1 | 10.4 |
| CCCN1C(=O)C(NC(=O)c2ccncc2)(C(F)(F)F)C2=C1CC(C)(C)CC2=O (stereo not shown) | 9.78 |
| Fc1cccc(Cc2noc(CN3CCSCC3)n2)c1 | 17.3 |
| COc1ccccc1C(=O)Nc1ccc(S(=O)(=O)Nc2onc(C)c2C)cc1 | 3.87 |
| Cn1c(-c2nonc2N)nc2ccccc21 | 11.5 |
| CCCCOC(=O)C1=C(C)NC2(O)c3ccccc3C(=O)C12O (stereo not shown) | 14 |
| COc1ccc(N2CCN(C3CCCN(Cc4ccccc4OCCO)C3)CC2)cc1 (stereo not shown) | 8.36 |
| CC(=O)N1CCN(c2ccc(NCc3ccc(Br)o3)cc2)CC1 | 6.43 |
| Cc1ccc(CN(C)C(=O)c2ccccc2NC(=O)c2ccccc2)o1 | 7.82 |
| CCOc1ccc(-n2c(-c3ccco3)n[nH]c2=S)cc1 | 14 |

| Structure (SMILES) | hERG current change (%, negative = inhibition) at 1uM [%] |
| --- | --- |
| Cc1cc(OCCN2CCN(S(=O)(=O)c3ccccc3F)CC2)ccc1C(C)C | 7.51 |
| CN(C(=O)Nc1ccccc1)C1CCS(=O)(=O)C1 (stereo not shown) | -1.61 |
| COc1ccc(C(=O)NCCNc2nc3c(C)cccc3cc2C#N)cc1OC | 8.9 |
| O=S(=O)(CCN1CCCCC1)Oc1ccc(Cl)cc1Cl | 7.85 |
| COc1ccc(NC(=O)CN(C)C(=O)c2cc(C3CC3)nn2-c2ccccc2)cc1 | 4.02 |
| CCOC(=O)c1cnc(-n2cc(C)cn2)nc1Nc1ccccc1OC | -4.51 |
| CCCCn1c(-c2nonc2N)nc2ccccc21 | 16 |
| O=C(/C=C/c1ccc(Cl)cc1Cl)NCc1ccco1 | -1.75 |
| Cc1ccc(NC(=O)/C(=C/c2ccncc2)NC(=O)c2ccccc2)cc1 | -0.321 |
| O=C(Nc1nnc(SCC(=O)N2CCCCC2)s1)c1c(F)cccc1F | 11.5 |
| O=C(CC(c1ccccc1O)N1CCCCC1)N1CCCCC1 (stereo not shown) | 3.08 |
| CN1C(=O)NC(c2ccccc2)C2=C1CN(c1cccc(C(F)(F)F)c1)C2=O (stereo not shown) | 2.03 |
| CCOC(=O)N1CCN(C(=O)CSc2ccc(-c3ccc(OC)c(OC)c3)nn2)CC1 | 0.431 |
| Cc1c(Cl)cccc1NC(=S)Nn1cnnc1 | 10.2 |
| C=CCn1c(SCC(=O)Nc2sccc2C#N)nc2sc(C)c(C)c2c1=O | 11.5 |
| COc1cc(OC)cc(-c2nc(N)n[nH]2)c1 | 0.707 |
| CCc1noc(C)c1C(=O)Nc1ccc(F)c(F)c1F | 11.7 |
| Cc1cc(C(=O)COc2ccc(C#N)cc2)c(C)n1C1CC1 | 0.682 |
| Cc1ccc2nc(/C(C#N)=C\c3ccc(OC(=O)c4cccs4)cc3)[nH]c2c1 | 1.95 |
| O=C(/C=C/c1cccc2ccccc12)N1CCOCC1 | 3.33 |
| O=C(O)CCC(=O)Nc1nc2ccccc2s1 | -1.9 |
| Cc1ccc(C#N)c(SCc2ccccc2F)n1 | 5.63 |
| CCOc1ccc(/C=C2\SC(=S)N(C(C(=O)O)c3ccccc3)C2=O)cc1OC (stereo not shown) | 9.55 |

| Structure (SMILES) | hERG current change (%, negative = inhibition) at 1uM [%] |
| --- | --- |
| CC1CCC(NC(=O)CSc2nnc(-c3cccnc3)o2)CC1 (stereo not shown) | 12.5 |
| COc1cccc(NC(=S)Nc2ccc(F)cc2)c1 | 15.8 |
| CCN(CC)S(=O)(=O)c1ccc(C(=O)Nc2ccc(Cc3ccncc3)cc2)cc1 | -14 |
| CCCc1cc(=O)[nH]c(SCC(=O)N2N=C(c3ccc(Cl)cc3)CC2c2ccco2)n1 (stereo not shown) | 16.2 |
| CC(=O)N1c2ccccc2Nc2ccccc21 | 8.98 |
| Cc1occc1C(=O)NNC1=CC(=O)CC(C)(C)C1 | 13.9 |
| O=C(NCC1CCCO1)C(c1cccnc1)N(C(=O)Cc1cccs1)c1cccnc1 (stereo not shown) | 4.83 |
| CCOc1ccc(C(C)NC(=O)CN2C(=O)NC3(CCCCC3)C2=O)cc1OCC (stereo not shown) | 16.1 |
| O=C(c1ccco1)N1CCN(C(=S)Nc2ccccc2Cl)CC1 | 4.93 |
| O=C1C2CSCN2C(=O)CN1CCCN1CCN(C(c2ccccc2)c2ccccc2)CC1 (stereo not shown) | -10.5 |
| COc1nonc1NC(=O)CSc1nc2ccccc2[nH]1 | 8.56 |
| CCOC(=O)N1CCN(C(=O)/C(=C/c2cccc3ccccc23)NC(=O)c2ccc(OC)cc2)CC1 | -10.5 |
| COc1cc(NC(=O)c2cc(OC)c(OC)c(OC)c2)c(OC)cc1NC(=O)CN1CCCCC1 | 8.57 |
| O=C(Nc1ccc(N2CCCC2)c(Cl)c1)c1ccco1 | 11.3 |
| CC(C)C1NC(=S)N(Cc2ccccc2)C1=O (stereo not shown) | 7.8 |
| CN(Cc1ccccc1)C(=O)Cc1ccccc1 | 10 |
| COc1ccc(S(=O)(=O)Nc2cccc(-n3cnnn3)c2)cc1OC | 14.7 |
| CCOC(=O)c1c(-c2ccc(C)cc2)csc1NC(=O)c1cc2ccccc2oc1=O | 7.55 |
| CC(=O)C1=NN(c2ccccc2)C(c2ccc3c(c2)OCO3)N1c1ccc(N2CCOCC2)cc1.CC(C)O (stereo not shown) | 13 |
| CC(=O)NCCC(=O)Nc1cccc(S(=O)(=O)N(C)c2ccccc2)c1 | 14.2 |
| CCSCCOC(=O)C1=C(C)NC(=O)NC1c1cc(OC)ccc1OC (stereo not shown) | 2.48 |
| Cc1sc(NC(=O)CN(Cc2ccc(F)cc2)C(=O)C(C)C)c(C(N)=O)c1C | 0.629 |
